In PubChem BioAssay AID1645882 (National Center for Advancing Translational Sciences (NCATS), 2021):
Out of some 16,000 compounds screened, about 120 (0.75%) were called active. Roughly 4% stayed inconclusive and do not appear here. Calls follow the shape of the dose curve; as a rule, active = well fitted inhibition curve with a large enough effect; inconclusive = small, poorly fitted or top-dose-only effect; inactive = no such curve, though single readings can be large or run the other way. The list shows a part of the results.

molecular target: Rap guanine nucleotide exchange factor 3 (Homo sapiens) (UniProt O95398); experiment: Validation qHTS for antagonist of cAMP-regulated guanine nucleotide exchange factor 3 (EPAC1); conditions: EPAC1 Rap1B-BODIPY-GDP exchange, fluorescence; series mostly up to 150 µM; activity change, negative = inhibition: at the top concentration;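 also: plate controls were DMSO for no effect and ATA control for full effect; nearly all actives have a fitted effect of over 75% in size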
Chain of UniProt O95398 (O95398 whole entry, looked up): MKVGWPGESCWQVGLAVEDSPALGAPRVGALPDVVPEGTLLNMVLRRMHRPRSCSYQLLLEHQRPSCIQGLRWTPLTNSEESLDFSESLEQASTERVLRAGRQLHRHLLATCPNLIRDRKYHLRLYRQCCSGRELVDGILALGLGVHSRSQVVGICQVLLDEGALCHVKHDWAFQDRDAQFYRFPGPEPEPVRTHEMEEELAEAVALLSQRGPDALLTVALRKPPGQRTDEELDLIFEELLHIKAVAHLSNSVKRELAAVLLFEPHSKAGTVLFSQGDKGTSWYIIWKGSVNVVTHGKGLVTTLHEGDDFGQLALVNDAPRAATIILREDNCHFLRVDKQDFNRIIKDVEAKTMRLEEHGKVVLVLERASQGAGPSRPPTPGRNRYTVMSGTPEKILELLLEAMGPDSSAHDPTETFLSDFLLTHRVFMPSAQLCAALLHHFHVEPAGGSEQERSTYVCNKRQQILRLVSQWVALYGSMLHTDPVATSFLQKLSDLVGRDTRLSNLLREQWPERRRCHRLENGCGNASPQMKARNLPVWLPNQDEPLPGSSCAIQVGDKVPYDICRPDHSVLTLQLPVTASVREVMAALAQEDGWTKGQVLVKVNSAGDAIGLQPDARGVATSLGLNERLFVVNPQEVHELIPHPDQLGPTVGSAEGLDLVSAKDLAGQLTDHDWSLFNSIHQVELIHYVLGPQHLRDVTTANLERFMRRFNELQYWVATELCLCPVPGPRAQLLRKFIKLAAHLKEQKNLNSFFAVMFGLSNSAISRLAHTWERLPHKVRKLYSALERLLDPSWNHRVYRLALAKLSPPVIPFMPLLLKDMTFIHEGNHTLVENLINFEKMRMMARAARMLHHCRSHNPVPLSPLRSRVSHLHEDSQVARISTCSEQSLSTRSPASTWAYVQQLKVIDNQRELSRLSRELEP
Method in brief: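 EPAC1 (100 nM) mixed with 250 nM RAP1B-BODIPY-GDP and 50 uM GDP; compounds in concentration series, 5 min at room temperature. Fluorescence (ex 480/em 540 nm) read every 5 min for 30 min; normalized to ATA control and DMSO.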

Activity change, negative = inhibition, inactive:
Cc1c(C(=O)NC2CCCC2)sc2ncnc(NCCN(C)C)c12 9.79%, C=Cc1c(C)c2cc3[nH]c(cc4nc(cc5nc(cc1[nH]2)C(C)=C5CCC(=O)O)C(CCC(=O)O)=C4C)c(C)c3C=C, C[C@H]1CCC(=O)N(CCSc2ccc(Br)cc2)CC1 0.975%, COc1ccc(-c2cc(=O)c3c(O)cc(O)c(-c4cc(-c5cc(=O)c6c(O)cc(O)cc6o5)ccc4OC)c3o2)cc1 24.1%, CCCCC(CC)COC(=O)c1ccccc1C(=O)O (centres undefined) 31.8% [at 320 µM], Cc1oc(-c2cccc(NC(=O)c3ccccn3)c2)nc1CNC(=O)c1cc(F)c(F)cc1F 13.7%, Cc1ccc(O)c(N=Nc2ccccc2)n1, CC(C)(C)NC[C@@H](O)COc1nsnc1N1CCOCC1 -6.18%, COc1ccc2c(c1)OC/C(=C\c1ccc(OC)c(O)c1)C2=O -25%, COc1ccccc1N1CCN(CCn2c(=O)c3c(c4ccccc4n3C)n(C)c2=O)CC1, COc1ccc2c(c1)OC1(O)COc3cc(OC)c(OC)cc3C1=C2 (centres undefined) 15.6%, Cn1cnnc1Sc1ccc(CN2CCOc3ccc(C4=Cc5ccccc5CC4)cc3C2)o1 -4.99%, COc1ccc2c(c1OC)C(Cc1ccccc1)N1CCc3cc4c(cc3C1C2)OCO4 (centres undefined) -24.6%, CC(C)(C(=O)O)c1ccc(C(O)CCCN2CCC(C(O)(c3ccccc3)c3ccccc3)CC2)cc1 (centres undefined), CN(C)c1ncc2nc(-c3ccccc3)c(=O)n(C3CC3)c2n1 -1.56%, Cn1cccc1C(=O)N1CCC2(CC1)CN(C(c1ccccc1)c1ccccc1)C2 -5.03%, CC(N)=NCCCC[C@H](N)C(=O)O -5.44%, C/C(=C\COc1cc(=O)[nH]c2ccccc12)CCC(O)C(C)(C)O (centres undefined), CCN(Cc1ccncc1)Cc1ccc2c(c1)CN(C(=O)c1ccc(C)cc1)CCO2 -0.879%, O=c1c(-c2cccc(F)c2)nc2cncnc2n1C1CC1 13.8%, COc1cc2c(cc1O)CCC1C2CC[C@@]2(C)C1CC[C@@H]2O (some centres undefined) -1.06%, O=C(O)c1cc(N=Nc2ccc(O)c(C(=O)O)c2)ccc1O 5.06%, COc1c2ccoc2c(OC)c2oc(=O)ccc12 -3.76%, COc1cc(S(C)=O)ccc1-c1nc2ncccc2[nH]1 (centres undefined) 16.8%, CCC1Nc2cc(Cl)c(S(N)(=O)=O)cc2S(=O)(=O)N1 (centres undefined) 23.7%, O=C(NCCO)c1cn(C2CCN(Cc3c(F)cccc3Cl)CC2)nn1 17.8%, CN1CCN(c2nc(-c3cccnc3)nc3ccccc23)CC1 -10.7%, N#Cc1cccc(NC(=O)N2CCC3(CC2)CCN(C(=O)c2cccc(F)c2)CC3)c1 7.59%, COc1ccc([C@@H]2CC(=O)c3c(O)cc(O[C@@H]4O[C@H](CO[C@@H]5O[C@@H](C)[C@H](O)[C@@H](O)[C@H]5O)[C@@H](O)[C@H](O)[C@H]4O)cc3O2)cc1O 9.92% [at 75.8 µM], N#CCCn1c(=O)cnc2cnc(Nc3ccccc3)nc21 15.1%, O=c1c(-c2ccccc2)nc2cnc(Nc3ccccc3)nc2n1Cc1cccs1 50.8%, Cc1nc(C(=O)N(Cc2cc3ccc(F)cc3nc2N2CCC(O)CC2)CC2CCCO2)cs1 (centres undefined) 16.1%, Cc1nc2cnc(N3CCNCC3)nc2n(C2CC2)c1=O 21.1%, O=C(O)COc1ccc(OCCNC[C@H](O)COc2ccccc2)cc1 23.5%, C=CC(C1=CC(=O)C=CC1=O)c1ccccc1 (centres undefined) 1.15%, CN1CCC(=O)N([C@H](CSc2ccccc2)c2ccccc2)CC1 -12.2%, CN1CCN(c2ncc3nc(-c4ccc(Cl)cc4)c(=O)n(-c4ccccc4)c3n2)CC1 -4.89%, COc1ccc2c(=O)ccoc2c1 9.46%, Cc1nnc(SCC2=C(C(=O)O)N3C(=O)C(NC(=O)Cn4cnnn4)[C@@H]3SC2)s1 (some centres undefined) 4.8%, CN(C)CCCN1c2ccccc2Sc2ccccc21, CCCCS(=N)(=O)CC[C@H](N)C(=O)O (some centres undefined) -8.04% [at 75.8 µM], NC(Cc1ccc(Cl)cc1)C(=O)O (centres undefined), COc1ccc(CNC(=O)[C@@H]2CC=C[C@@H]3CCN(Cc4ccc(Cl)c(Cl)c4)C(=O)[C@@H]32)cc1 -10.7%, Cc1cc(C(C)(C)C)c(O)c(C)c1CC1=NCCN1, CS(=O)(=O)Nc1cccc(-c2nc(Nc3ccncc3)c3ccccc3n2)c1 -12.7%, c1cncc(CNc2nc(-c3ccoc3)nc3ccccc23)c1 28.7%, Cn1cc(-c2nc3cnc(N4CCNCC4)nc3n(-c3ccccc3)c2=O)c2ccccc21 10.7%, CN(C)C(=O)c1ccc(-c2nc(-n3ccnc3)c3ccccc3n2)cc1 1.04%, CN1CCN(c2ncnc3ccc(-c4ccoc4)cc23)CC1 6.53%, COc1ccc(-n2c(=O)c(C)nc3cnc(Oc4ccccc4)nc32)cc1 3.4%, NS(=O)(=O)c1cc(C(=O)O)cc(N2CCCC2)c1Oc1ccccc1 15% [at 75.8 µM], Cc1oc(-c2ccccc2NC(=O)c2ccsc2)nc1CN(C)CC1CC=CCC1 (centres undefined) 31.2%, CS(=O)(=O)N1CCC2(CC1)CN(c1ncccn1)C2 -18.5%, Cc1cc2c(c(-c3ccc4nc(C)ccc4c3)c1)OC(CNC(=O)Cc1ccn(C)c1)C2 (centres undefined) 4.92%, Cc1cc(C)cc(NC(=O)C2CC23CCN(Cc2ccc4ncccc4c2)CC3)c1 (centres undefined) 0.743%, CC1CC[C@@]2(OC1)OC1CC3C4CC[C@H]5CC(O)CC[C@@]5(C)C4CC[C@]3(C)C1C2C (some centres undefined) 12.8%, COCCn1c(=O)c(-c2cccc(C#N)c2)nc2cnc(OCc3ccccc3)nc21 -2.25%, CS(=O)(=O)N1CCC[C@@]2(CCN(C(=O)Nc3cccc(F)c3)C2)C1 16.2%, CC(CCc1ccccc1)NCC(O)c1ccc(O)c(C(N)=O)c1 (centres undefined), O=C(O)c1ccccc1[O-].O=C(O)c1ccccc1[O-].[Zn+2] -12.3%, COCCn1c(=O)c(CCc2ccccc2)nc2cnc(Oc3ccccc3)nc21 4.44%, CCOC(=O)[C@H](CCc1ccccc1)N[C@@H](C)C(=O)N1Cc2ccccc2C[C@H]1C(=O)O 11.6%, OC1(c2cccnc2)CCN(Cc2ccc3c(c2)CN(Cc2ccc4nsnc4c2)CCO3)CC1 9.52%, CC1CC(OC(=O)C(O)c2ccccc2)CC(C)(C)C1 (centres undefined) -10.4%, COCC(=O)N1CCC2(CCCN(c3ccccc3)C2)CC1 14.7%, Cc1ncc2c(c1CNS(=O)(=O)N(C)C)CCN(C(=O)c1ccc(F)cc1Cl)C2 0.14%, Cc1nc(-c2coc3c(O)c(O)ccc3c2=O)cs1 -29.1%, NC(C(=O)N[C@@H]1C(=O)N2C(C(=O)O)=C(Cl)CS[C@H]12)c1ccccc1 (some centres undefined) 7.93% [at 75.8 µM], CCOC(=O)c1c(N)sc2c1CCN(Cc1ccccc1)C2 19%, CC(=O)Oc1ccc2c(c1)CC[C@@H]1[C@@H]2CC[C@]2(C)[C@@H](O)CC[C@@H]12 55.2%, COc1ccc(C(Cl)=C(c2ccc(OC)cc2)c2ccc(OC)cc2)cc1, Cc1oncc1C(=O)Nc1ccc(C(F)(F)F)cc1, O=c1[nH]c2cc(C(F)(F)F)c(N3CCOCC3)cc2n(CP(=O)(O)O)c1=O 14.5%, Nc1ccn(C2CO[C@H](CO)O2)c(=O)n1 (some centres undefined) 184%, CN(C)c1ccc(C=O)cc1[N+](=O)[O-] 1.83%, O=C(O)c1cccnc1Nc1cccc(C(F)(F)F)c1, OCc1ccccc1O[C@H]1OC(CO)C(O)C(O)C1O (some centres undefined) 7.04%, Cc1noc(C)c1-c1nc(N(C)C)c2ccccc2n1 9.74%, CC(C)c1nc(C(=O)N2CCOc3ccc(CN4CCN(c5ccccn5)CC4)cc3C2)cs1 13%, Cc1cc(C)c(C(=O)NCc2nc(-c3cccc(NC(=O)C4CCCN(C)C4)c3)oc2C)[nH]1 (centres undefined) 22%, COc1ccccc1CNc1cc(-c2c(C)noc2C)ncn1 -9.34%, CCOC(=O)C[C@H]1c2ccc(C(F)(F)F)cc2S(=O)(=O)N1Cc1ccccc1 -6.92%, O=c1ccc2ccc(O)cc2o1 1.97%, COc1cccc(Cn2c(=O)c(-c3cccs3)nc3cnc(N4CCNCC4)nc32)c1 -5.31%, CCCCCC[C@@H]([C@@H](C)O)n1cnc2c(N)ncnc21, CC1C(=O)OC2C(O)C34C5CC(C(C)(C)C)C36C(OC(=O)C6O)OC4(C(=O)O5)C12O (centres undefined) 2.22%, C[N+](C)(C)CCCCCC[N+](C)(C)C, CC[N+](C)(C)Cc1ccccc1Br 4.01% [at 75.8 µM], CCCCCCCCc1ccc(-c2ccc(C(=O)O)cc2)cc1 6.32% [at 75.8 µM], COc1ccc(C(=O)NCC2Cc3cc(F)cc(-c4cncnc4)c3O2)cc1 (centres undefined) -1.25%, Cc1cc(O)c(C=O)c2c1C(=O)Oc1c(C)c(O)c3c(c1O2)C(O)OC3=O (centres undefined) -23.6%, CN1C(C)(C)CCCC1(C)C 6.47%, O=c1[nH]c(=O)n(C2CC(O)C(CO)O2)cc1C(F)(F)F (centres undefined) 6.21%, CCCCc1c(C)[nH]c2c(OC)cccc2c1=S 12.9%, COc1ccc(CNc2ccnc(-c3ccc(C(=O)N(C)C)cc3)n2)c(OC)c1 3.57%, N[C@@H](CCC(=O)N[C@H](CSN=O)C(=O)NCC(=O)O)C(=O)O 10.8% [at 75.8 µM], C[C@@H]1C[C@H]2[C@@H]3CCC4=CC(=O)C=C[C@]4(C)[C@@]3(F)[C@@H](O)C[C@]2(C)[C@@]1(O)C(=O)COC(=O)c1cccc(S(=O)(=O)O)c1 20.2%, CCCCCCCCCCCCCC(=O)N[C@@H](C)[C@H](O)c1ccccc1 13.7% [at 15.3 µM], Cc1cc(NC(=O)Nc2ccc(N(C)C)cc2)c2cc(F)cc(F)c2n1 -16.4%, Cc1onc(-c2c(Cl)cccc2Cl)c1C(=O)N[C@@H]1C(=O)N2[C@@H]1SC(C)(C)[C@@H]2C(=O)O 48.7%, COCCn1c(=O)c(-c2cccc(C#N)c2)nc2cnc(N3CCOCC3)nc21 13.6%, COc1cc(OC)c(C(C)=O)c(O)c1C 21%, OC[C@H]1O[C@@H](n2cnc3c2NC=NC[C@H]3O)C[C@@H]1O 2.97%, N#CCCn1c(=O)c(-c2ccc(Cl)cc2)nc2cnc(Oc3cccc(Cl)c3)nc21 17.9%
